The other results are listed elsewhere or left out. The full chains were built here from the parent and the listed change. Inactive controls read about 0.05.
B1: TEV protease; numbered along this chain (parent)
chain: MGESLFKGPRDYNPISSSICHLTNESDGHTTSLYGIGFGPFIITNKHLFRRNNGTLVVQSLHGVFKVKDTTTLQQHLVDGRDMIIIRMPKDFPPFPQKLKFREPQREERICLVTTNFQTKSMSSMVSDTSCTFPSGDGIFWKHWIQTKDGQCGSPLVSTRDGFIVGIHSASNFTNTNNYFTSVPKNFMELLTNQEAQQWVSGWRLNADSVLWGGHKVFMVKPEEPFQPVKEATQL

Variants of: B1
Experiment: raw area under fraction-flipped curve 0-4 h after induction (AUC4h, not background-subtracted), DNA-recorder readout of cleavage of the substrate (dimensionless); higher = more cleavage of the substrate by the protease variant
Conditions: temperature: 34 °C; time window: 0-4 h after rhamnose induction
Procedure: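 In vivo DNA recorder in E. coli TOP10(DE3) ΔrhaA at 34 °C. Each TEVp single-site mutant (parent TEVp 0) is paired with a single-site variant of the 7-mer TEVs (canonical ENLYFQ|S). The substrate sits between flexible linkers in a Bxb1-sfGFP-TEVs-SsrA fusion, so cleavage stabilises Bxb1 and speeds flipping of a recombination array, read by NGS. The value is the raw area under the fraction-flipped curve over 0-4 h after rhamnose induction (AUC4h), with ≥20 reads per time point. It is not background-subtracted; inactive controls average about 0.047.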
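Also: Bxb1 expression induced with 0.2% (w/v) L-rhamnose at OD600 near 0.5, cultures sampled hourly, flipped fraction per protease–substrate barcode pair counted by paired-end Illumina sequencing.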

Which results are given for G28P?
area with substrate ENLYFQA: 0.102; area with substrate ENLYFQC: 0.0833; area with substrate ENLYFQF: 0.0561; area with substrate ENLYFQG: 0.0748; area with substrate ENLYFQH: 0.0933; area with substrate ENLYFQI: 0.048; area with substrate ENLYFQK: 0.0623; area with substrate ENLYFQL: 0.06; area with substrate ENLYFQN: 0.0881; area with substrate ENLYFQP: 0.0709; area with substrate ENLYFQR: 0.0629; area with substrate ENLYFQS: 0.0774; area with substrate ENLYFQT: 0.067; area with substrate ENLYFQV: 0.0305; area with substrate ENLYFQW: 0.0663; area with substrate ENLYFQY: 0.0651

With V183Y as the variant, how does the “area with substrate ENLYFQA” value read?
The value was 0.0767.

What about the “area with substrate ENLYFQC” value of the same variant?
The value was 0.0852.

And the “area with substrate ENLYFQD” value?
The value was 0.0667.

What about the “area with substrate ENLYFQE” value of the same variant?
Its value is 0.0716.

What about the “area with substrate ENLYFQI” value of the same variant?
Its value is 0.0401.

What about the “area with substrate ENLYFQK” value of the same variant?
Its value is 0.0581.

And the “area with substrate ENLYFQL” value?
The value was 0.0543.

What about the “area with substrate ENLYFQM” value of the same variant?
Its value is 0.0691.

And the “area with substrate ENLYFQN” value?
Its value is 0.0598.

And the “area with substrate ENLYFQR” value?
Its value is 0.0516.

What about the “area with substrate ENLYFQS” value of the same variant?
The value was 0.0782.

And the “area with substrate ENLYFQW” value?
The value was 0.057.

And the “area with substrate ENLYFQY” value?
The value was 0.0559.

Which “area with substrate ENLYFQA” value does the source give for F187N here?
The value was 0.0537.

And the “area with substrate ENLYFQC” value?
Its value is 0.0487.

What about the “area with substrate ENLYFQD” value of the same variant?
Its value is 0.0548.

What about the “area with substrate ENLYFQF” value of the same variant?
Its value is 0.0289.

What about the “area with substrate ENLYFQH” value of the same variant?
The value was 0.0574.

And the “area with substrate ENLYFQI” value?
Its value is 0.0515.

What about the “area with substrate ENLYFQK” value of the same variant?
Its value is 0.0573.

What about the “area with substrate ENLYFQL” value of the same variant?
The value was 0.0646.

What about the “area with substrate ENLYFQM” value of the same variant?
Its value is 0.0405.

What about the “area with substrate ENLYFQN” value of the same variant?
Its value is 0.0428.

What about the “area with substrate ENLYFQR” value of the same variant?
Its value is 0.0567.

And the “area with substrate ENLYFQS” value?
The value was 0.0546.

What about the “area with substrate ENLYFQW” value of the same variant?
The value was 0.0573.

For E108I, which “area with substrate ENLYFQA” value is on record?
Its value is 0.0582.

And the “area with substrate ENLYFQC” value?
Its value is 0.0577.

What about the “area with substrate ENLYFQD” value of the same variant?
The value was 0.0548.

And the “area with substrate ENLYFQG” value?
Its value is 0.0675.

What about the “area with substrate ENLYFQH” value of the same variant?
Its value is 0.0585.

And the “area with substrate ENLYFQI” value?
Its value is 0.0501.

And the “area with substrate ENLYFQK” value?
The value was 0.0552.

What about the “area with substrate ENLYFQL” value of the same variant?
The value was 0.0586.

What about the “area with substrate ENLYFQM” value of the same variant?
The value was 0.0642.

What about the “area with substrate ENLYFQN” value of the same variant?
Its value is 0.0502.

What about the “area with substrate ENLYFQP” value of the same variant?
The value was 0.0478.

What about the “area with substrate ENLYFQQ” value of the same variant?
Its value is 0.0558.

And the “area with substrate ENLYFQR” value?
Its value is 0.0401.

And the “area with substrate ENLYFQS” value?
The value was 0.0632.

What about the “area with substrate ENLYFQT” value of the same variant?
Its value is 0.0624.

And the “area with substrate ENLYFQW” value?
Its value is 0.0652.

Which results are given for S201I?
area with substrate ENLYFQA: 0.106; area with substrate ENLYFQE: 0.0919; area with substrate ENLYFQG: 0.0857; area with substrate ENLYFQH: 0.0602; area with substrate ENLYFQK: 0.0595; area with substrate ENLYFQL: 0.0546; area with substrate ENLYFQN: 0.0645; area with substrate ENLYFQS: 0.0945; area with substrate ENLYFQV: 0.0587; area with substrate ENLYFQY: 0.0847

Which results are given for I85V?
area with substrate ENLYFQA: 0.0793; area with substrate ENLYFQC: 0.098; area with substrate ENLYFQD: 0.0711; area with substrate ENLYFQF: 0.0803; area with substrate ENLYFQG: 0.0797; area with substrate ENLYFQI: 0.0451; area with substrate ENLYFQL: 0.0596; area with substrate ENLYFQM: 0.0964; area with substrate ENLYFQN: 0.0775; area with substrate ENLYFQP: 0.0782; area with substrate ENLYFQQ: 0.0748; area with substrate ENLYFQS: 0.0895; area with substrate ENLYFQW: 0.0629; area with substrate ENLYFQY: 0.0636

Which “area with substrate ENLYFQA” value does the source give for N52R here?
The value was 0.0734.

What about the “area with substrate ENLYFQF” value of the same variant?
Its value is 0.0445.

And the “area with substrate ENLYFQH” value?
Its value is 0.0812.

What about the “area with substrate ENLYFQI” value of the same variant?
Its value is 0.0597.

And the “area with substrate ENLYFQK” value?
Its value is 0.0623.

And the “area with substrate ENLYFQL” value?
The value was 0.0476.

What about the “area with substrate ENLYFQM” value of the same variant?
The value was 0.0572.

And the “area with substrate ENLYFQN” value?
The value was 0.0625.

And the “area with substrate ENLYFQP” value?
The value was 0.0596.

And the “area with substrate ENLYFQQ” value?
The value was 0.0673.

What about the “area with substrate ENLYFQR” value of the same variant?
The value was 0.0572.

What about the “area with substrate ENLYFQS” value of the same variant?
Its value is 0.0768.

What about the “area with substrate ENLYFQT” value of the same variant?
Its value is 0.0727.

And the “area with substrate ENLYFQV” value?
The value was 0.0612.

And the “area with substrate ENLYFQY” value?
Its value is 0.0559.

Which “area with substrate ENLYFQA” value does the source give for D149N here?
Its value is 0.0896.

And the “area with substrate ENLYFQC” value?
Its value is 0.116.

What about the “area with substrate ENLYFQF” value of the same variant?
The value was 0.0587.

And the “area with substrate ENLYFQG” value?
Its value is 0.0777.

What about the “area with substrate ENLYFQH” value of the same variant?
Its value is 0.0938.

And the “area with substrate ENLYFQI” value?
Its value is 0.0538.

And the “area with substrate ENLYFQK” value?
Its value is 0.0638.

And the “area with substrate ENLYFQL” value?
Its value is 0.0379.

And the “area with substrate ENLYFQM” value?
Its value is 0.0954.

What about the “area with substrate ENLYFQP” value of the same variant?
The value was 0.0594.

And the “area with substrate ENLYFQQ” value?
The value was 0.0589.

And the “area with substrate ENLYFQR” value?
The value was 0.0658.

And the “area with substrate ENLYFQS” value?
The value was 0.0992.

And the “area with substrate ENLYFQT” value?
Its value is 0.0587.

What about the “area with substrate ENLYFQV” value of the same variant?
Its value is 0.0547.

What about the “area with substrate ENLYFQW” value of the same variant?
The value was 0.0706.

And the “area with substrate ENLYFQY” value?
The value was 0.0829.

With G28W as the variant, how does the “area with substrate ENLYFQA” value read?
The value was 0.0944.

And the “area with substrate ENLYFQC” value?
The value was 0.0683.

What about the “area with substrate ENLYFQD” value of the same variant?
Its value is 0.0659.

What about the “area with substrate ENLYFQF” value of the same variant?
Its value is 0.0557.

What about the “area with substrate ENLYFQG” value of the same variant?
The value was 0.0691.

And the “area with substrate ENLYFQH” value?
The value was 0.0687.

And the “area with substrate ENLYFQI” value?
Its value is 0.0568.

What about the “area with substrate ENLYFQK” value of the same variant?
The value was 0.0584.

And the “area with substrate ENLYFQL” value?
The value was 0.0385.

And the “area with substrate ENLYFQM” value?
Its value is 0.0637.

What about the “area with substrate ENLYFQN” value of the same variant?
Its value is 0.0758.

What about the “area with substrate ENLYFQP” value of the same variant?
The value was 0.0581.

What about the “area with substrate ENLYFQR” value of the same variant?
Its value is 0.0626.

What about the “area with substrate ENLYFQS” value of the same variant?
Its value is 0.0777.

What about the “area with substrate ENLYFQT” value of the same variant?
Its value is 0.0637.

What about the “area with substrate ENLYFQV” value of the same variant?
The value was 0.0586.

And the “area with substrate ENLYFQW” value?
Its value is 0.058.

What about the “area with substrate ENLYFQY” value of the same variant?
The value was 0.0692.

Which “area with substrate ENLYFQA” value does the source give for S121D here?
Its value is 0.0704.

And the “area with substrate ENLYFQC” value?
Its value is 0.115.

What about the “area with substrate ENLYFQF” value of the same variant?
Its value is 0.095.

And the “area with substrate ENLYFQG” value?
The value was 0.0809.

What about the “area with substrate ENLYFQH” value of the same variant?
The value was 0.0584.

What about the “area with substrate ENLYFQI” value of the same variant?
Its value is 0.0575.

What about the “area with substrate ENLYFQK” value of the same variant?
Its value is 0.074.

And the “area with substrate ENLYFQM” value?
The value was 0.0927.

What about the “area with substrate ENLYFQN” value of the same variant?
The value was 0.0671.

And the “area with substrate ENLYFQR” value?
The value was 0.0684.

And the “area with substrate ENLYFQS” value?
Its value is 0.102.

And the “area with substrate ENLYFQT” value?
The value was 0.0735.

And the “area with substrate ENLYFQV” value?
Its value is 0.0681.

What about the “area with substrate ENLYFQW” value of the same variant?
Its value is 0.0556.

What about the “area with substrate ENLYFQY” value of the same variant?
Its value is 0.0614.

What does the source list for F95W?
area with substrate ENLYFQA: 0.101; area with substrate ENLYFQC: 0.144; area with substrate ENLYFQD: 0.0851; area with substrate ENLYFQF: 0.0718; area with substrate ENLYFQG: 0.0687; area with substrate ENLYFQH: 0.0704; area with substrate ENLYFQN: 0.0697; area with substrate ENLYFQP: 0.0621; area with substrate ENLYFQR: 0.054; area with substrate ENLYFQS: 0.104; area with substrate ENLYFQV: 0.0633; area with substrate ENLYFQY: 0.071

Which results are given for S16W?
area with substrate ENLYFQA: 0.133; area with substrate ENLYFQC: 0.117; area with substrate ENLYFQD: 0.0612; area with substrate ENLYFQF: 0.077; area with substrate ENLYFQG: 0.099; area with substrate ENLYFQK: 0.0593; area with substrate ENLYFQL: 0.0582; area with substrate ENLYFQM: 0.112; area with substrate ENLYFQN: 0.0677; area with substrate ENLYFQQ: 0.0769; area with substrate ENLYFQS: 0.103; area with substrate ENLYFQT: 0.0664; area with substrate ENLYFQV: 0.0431; area with substrate ENLYFQW: 0.0751

For W203E, which “area with substrate ENLYFQA” value is on record?
Its value is 0.0623.

What about the “area with substrate ENLYFQC” value of the same variant?
Its value is 0.0571.

What about the “area with substrate ENLYFQK” value of the same variant?
Its value is 0.0611.

What about the “area with substrate ENLYFQN” value of the same variant?
Its value is 0.0646.

And the “area with substrate ENLYFQP” value?
The value was 0.0513.

And the “area with substrate ENLYFQR” value?
The value was 0.0568.

And the “area with substrate ENLYFQS” value?
Its value is 0.0662.

What about the “area with substrate ENLYFQT” value of the same variant?
The value was 0.0613.

What about the “area with substrate ENLYFQW” value of the same variant?
Its value is 0.0857.

What about the “area with substrate ENLYFQY” value of the same variant?
Its value is 0.0486.
